Reference: PubChem BioAssay AID1454 (National Center for Advancing Translational Sciences (NCATS), 2008)
In all, about 130,000 compounds went through this assay and about 550 (0.42%) were called active. The shares of active, inactive and inconclusive entries below differ from those in the screen. The call rests on the fitted dose curve; in most records, active means well fitted inhibition curve with a large enough effect; inconclusive means small, poorly fitted or top-dose-only effect, or effect the other way; inactive means flat fitted curve, though single readings scatter. No potency is given beside an inconclusive call; the fits are too rough.

assay: qHTS Assay for Inhibitors of the ERK Signaling Pathway using a Homogeneous Screening Assay; Stimulation with EGF; details: HEK293-V1b, EGF-stimulated phospho-ERK AlphaScreen; activity change, negative = inhibition: at the top concentration; further: nearly all actives have a fitted effect of over 55% in size;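 on activity change, negative = inhibition: plate controls were stimulated vehicle wells for no effect and unstimulated vehicle basal for full effect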
Procedure, shortened: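 EGF-stimulated (25 nM, 5 min) phospho-ERK in HEK293 cells stably expressing V1b, cells pretreated 30 min with compound at 37C. Homogeneous AlphaScreen read on lysates.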
Potency means the concentration at half of the fitted maximal effect; tags describe the fitted curve by direction and shape.

| SMILES | Potency | activity change, negative = inhibition |
| --- | --- | --- |
| COC(=O)c1cccc(C23CC4(C2)[C@H](CN(Cc2cccnc2)[C@@H]4c2ccccc2)C3c2ccc(C(F)(F)F)cc2)c1 (stereo partly drawn) | inactive |  |
| O=C(/C=C/c1ccc2c(c1)OCO2)NCc1cn2cc(Cl)ccc2n1 |  | inactive: -5.35% |
| Cc1ccc2ncnc(Nc3ccccc3)c2c1 | active: 3.55 µM |  |
| CCOc1ccc(-n2nnc3c(=O)n(CC(=O)NCc4ccco4)cnc32)cc1 |  | inactive: -7.31% [at 57.5 µM] |
| O=c1ccc2[n+]([O-])c3ccc(O)cc3oc-2c1 | active: 15.8 µM |  |
| CSc1ccc(N=Nc2c(C)[nH]n(C)c2=O)cc1 | inconclusive [inhibitor, partial curve] |  |
| Cc1nc(Nc2ccc(Cl)cc2Cl)sc1C(=O)Nc1ccccc1 | inconclusive [inhibitor, single point] |  |
| N=c1n(CCN2CCCCC2)c2ccccc2n1CC(=O)c1ccc(Cl)c(Cl)c1 | active: 28.2 µM |  |
| CC(C)(C)C(=O)COC(=O)c1c2c(nc3ccccc13)CCC2 | inconclusive [inhibitor, single point] |  |
| CC(/C=C1\SC(=S)N(CC(=O)N2CCN(c3ccccc3)CC2)C1=O)=C\c1ccccc1 | inconclusive [inhibitor, partial curve] |  |
| COc1cccc(/C=C(/C(=O)OCC(=O)NC2CCCC(C)C2C)c2ccccc2)c1 (stereo not drawn) | inconclusive [inhibitor, single point] |  |
| C[C@@H](C(=O)Nc1ccc2ccccc2c1)[C@H]1C[C@]1(C)[C@H](NC(=O)Oc1ccc(F)cc1)c1ccccc1 |  | inactive: 3.84% |
| CN1/C(=C\C=N\O)C(C)(C)c2ccccc21 |  | inactive: 5.77% |
| Cc1ccc(C)c(OCC(O)CN2CCC(CN3C(=O)c4cccc5cccc(c45)C3=O)CC2)c1 (stereo not drawn) | inconclusive [inhibitor, single point] |  |
| O=C(COc1cccc(Cl)c1)Nc1ccc2c(c1)CCC2 |  | inactive: 1.37% |
| COC(=O)c1sccc1NC(=O)c1ccc(OC)cc1OC |  | inactive: -8.85% |
| O=C(CNC(=O)c1ccc(F)cc1)N/N=C/c1cc(Br)ccc1OCc1ccccc1 |  | inactive: -9.32% |
| OCC1(CCc2ccccc2)CCN(Cc2cnc(N3CCCC3)s2)CC1 | inconclusive [inhibitor, single point] |  |
| O=C(NNc1nc2ccc(Cl)cc2s1)c1cc(-c2cccs2)nc2ccccc12 | inconclusive [inhibitor, partial curve] |  |
| COc1ccc(N)c2c1C(=O)c1ccccc1C2=O | active: 20 µM |  |
| C[C@]12CCC(=O)C=C1CCC1C3CC[C@](O)(C(=O)CO)[C@@]3(C)CC3OC312 (stereo partly drawn) | inconclusive [inhibitor, single point] |  |
| CCOc1cc(/C=C\[N+](=O)[O-])ccc1OCC(=O)N1CCOCC1 | inconclusive [inhibitor, partial curve] |  |
| COC(=O)c1ccc(NC(=O)CCS(=O)(=O)c2ccc(Br)cc2)cc1 | inconclusive [inhibitor, single point] |  |

| SMILES | Potency | activity change, negative = inhibition |
| --- | --- | --- |
| CCOC(=O)N1CCN(S(=O)(=O)c2ccc(C(=O)NNc3nc4c(C)cc(C)cc4s3)cc2)CC1 | inconclusive [inhibitor, full curve] |  |
| CC(C)(C)n1ncc2c(=O)n(Cc3ccc(Cl)c(Cl)c3)cnc21 | inconclusive [inhibitor, single point] |  |
| Cc1ccccc1OCc1nc2ccccc2c(=O)n1/N=C/c1ccco1 |  | inactive: -1.21% |
| S=C(NNc1cccc(Cl)c1)NC1CCCCC1 | inconclusive [inhibitor, partial curve] |  |
| O=C(COC(=O)c1cccc(Br)c1)Nc1cccc2c1C(=O)c1ccccc1C2=O | inconclusive [inhibitor, single point] |  |
| O=C(O)Cc1ccc(N=Nc2c(O)c(C(=O)O)cc3ccccc23)cc1 | inconclusive [inhibitor, partial curve] |  |
| Cc1nc(NCc2ccccc2)c2nc(-c3ccccc3)n(CCN3CCOCC3)c2n1 |  | inactive: -0.955% |
| O=C1/C(=C/C=C/c2ccco2)SC(=S)N1NS(=O)(=O)c1ccccc1 | inconclusive [inhibitor, single point] |  |
| CN(c1cccc(NC(=O)c2ccc(N(C)S(=O)(=O)c3ccccc3)cc2)c1)S(C)(=O)=O | inconclusive [inhibitor, single point] |  |
| Cc1ccc(NC(=O)CCSc2ccccc2)c(C)c1 | inconclusive [inhibitor, single point] |  |
| O=C(Nc1ccc2oc(-c3ccccc3)nc2c1)c1cccs1 | inconclusive [inhibitor, single point] |  |
| CN(Cc1ccccc1)C(=O)c1nc2ccccn2c1CN1CCc2sccc2C1 | inconclusive [inhibitor, partial curve] |  |
| Fc1ccc(Nc2nc(NCc3ccco3)c3ccccc3n2)cc1 | inconclusive [inhibitor, single point] |  |
| O=C(CSc1ccc([N+](=O)[O-])cn1)Nc1ccc(N2CCOCC2)c(Cl)c1 | inconclusive [inhibitor, partial curve] |  |
| Oc1ccc(N=Nc2ccc3c(c2)OCCO3)c(O)c1 | inconclusive [inhibitor, partial curve] |  |
| O=[N+]([O-])c1ccccc1Nc1ccccc1 | inconclusive [inhibitor, partial curve] |  |
| N#Cc1ccccc1Cn1cc(/C=C/[N+](=O)[O-])c2ccccc21 | inconclusive [inhibitor, single point] |  |
| Cc1ccc(C)n1-c1c(C(=O)NN)cnn1-c1ccccc1 | inconclusive [inhibitor, single point] |  |
| COc1ccc(N2CC(O)=C(c3nc(-c4ccc(F)cc4)cs3)C2=N)cc1OC | inconclusive [inhibitor, single point] |  |
| c1ccc(-c2ccccc2OCCOCCN2CCc3ccccc3C2)cc1 | inconclusive [inhibitor, single point] |  |
| Cc1cc(CNC(=O)COc2ccc(C#N)cc2)c2ccccc2n1 | inconclusive [inhibitor, single point] |  |
| CC(C)CC(=O)/C(=C\c1ccc(Cl)cc1Cl)n1cncn1 | active: 28.2 µM |  |
| CCC/C=C(\CCC)C(NS(=O)(=O)c1cccs1)c1ccc(C(=O)OC)cc1 (stereo not drawn) |  | inactive: 1.62% |

| SMILES | Potency | activity change, negative = inhibition |
| --- | --- | --- |
| CCC(=O)NC(c1ccco1)c1cc(Cl)c2cccnc2c1O (stereo not drawn) |  | inactive: 8.42% |
| COc1ccc(OC)c(/C=C2\S/C(=N/NC(=O)c3ccc4ccccc4c3)NC2=O)c1 | inconclusive [inhibitor, single point] |  |
| O=C(CSc1nc2ccccc2[nH]1)N/N=C/C=C\c1ccccc1[N+](=O)[O-] | inconclusive [inhibitor, single point] |  |
| COCCn1c(C)cc(C(=O)CSc2nc3ccccc3c(=O)n2Cc2ccco2)c1C | inconclusive [inhibitor, single point] |  |
| O=C(CN1C(=O)C2CC=CCC2C1=O)NC1CCCCC1 (stereo not drawn) |  | inactive: -0.936% |
| NC(=O)CC(NC(=O)c1ccccc1)c1ccc(NC2CCC2)c([N+](=O)[O-])c1 (stereo not drawn) | inconclusive [inhibitor, full curve, poor fit] |  |
| O=C(CCl)Nc1cccc(Oc2ccccc2)c1 | inconclusive [inhibitor, single point] |  |
| CCOc1ccc(CCNc2nc3ccccc3n3cnnc23)cc1OCC | inconclusive [inhibitor, full curve, poor fit] |  |
| Cc1[nH]nc(Nc2ccc(Br)cc2)c1[N+](=O)[O-] | inconclusive [inhibitor, single point] |  |
| COC(=O)C1=C(C(=O)OC)[C@@H]2N(Cc3ccccc3)c3ccccc3[C@@]23C[C@@H](C(=O)OC)N(C(=O)CC(C)C)C3=N1 | inconclusive [inhibitor, partial curve] |  |
| O=c1c2c(nc3cc(-c4ccc(F)cc4)[nH]n13)CCC2 | inconclusive [inhibitor, partial curve] |  |
| COc1ccc2nc(-n3c(O)c(C4=c5ccccc5=NC4=O)[nH]c3=S)sc2c1 | inconclusive [inhibitor, partial curve] |  |
| COc1cc(N=Nc2cccc(S(N)(=O)=O)c2)c2ccccc2c1N | inconclusive [inhibitor, single point] |  |
| CCN1C(=O)/C(=C2/C=Cc3cc(C)ccc3N2CC)N(C)C1=S | active: 14.1 µM |  |
| CC(CC(C)C(=O)Nc1ccccc1C(C)(C)C)C(=O)O (stereo not drawn) |  | inactive: 5.65% |
| CC(C)Oc1ccc(C(=O)NC(=S)Nc2ccc(CN3CCOCC3)cc2)cc1 | inconclusive [inhibitor, single point] |  |
| CCOc1ccccc1CN1CCN(C/C=C/c2ccc(OC)cc2)CC1CCO (stereo not drawn) | inconclusive [inhibitor, single point] |  |
| Cc1cc(C(=O)CN2C(=O)NC3(CCCCC3C)C2=O)c(C)n1Cc1cccs1 (stereo not drawn) |  | inactive: 3.01% |
| COc1cccc(C(c2c(N)n(C)c(=O)n(C)c2=O)C(C)[N+](=O)[O-])c1 (stereo not drawn) | inconclusive [inhibitor, full curve, poor fit] |  |
| CCOc1ccccc1-n1nnnc1SCC(=O)O | inconclusive [inhibitor, single point] |  |
| O=C(Oc1cccc(Nc2ncnc3ccccc23)c1)c1cccnc1 | active: 14.1 µM |  |
| O=C(Nc1cccnc1)c1ccc(N2CCCC2)c([N+](=O)[O-])c1 | inconclusive [inhibitor, partial curve, poor fit] |  |
